Experimental data reported in PubChem BioAssay AID485344 (National Center for Advancing Translational Sciences (NCATS), 2010).
Among all 340,000 compounds or so, about 6,900 (2%) were called active. Cut-off read from the data, not from the text of the source: active = inhibition above about 30%; inactive = below that, where a call was filed. The list shows a part of the results, in another mix than the full data. Where no call is shown, the source filed none.

Biological target: D(2) dopamine receptor (Homo sapiens) (UniProt P14416)
Assay: HTS Assay for Allosteric Antagonists of the Human D2 Dopamine Receptor: Primary Screen for Antagonists; note: 0% is about no effect
Conditions: HEK293 TREx D2 cells, calcium flux, dopamine EC80; at 10 µM; stronger effect = higher value
Outline: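 Measurement of antagonist activity uses fluorescent calcium dye in inducible HEK293 T-REx D2 cells: 10 s baseline, compound addition with 180 s read, EC80 dopamine addition with a further 180 s read.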

Sequence of UniProt P14416 (P14416 whole entry, looked up): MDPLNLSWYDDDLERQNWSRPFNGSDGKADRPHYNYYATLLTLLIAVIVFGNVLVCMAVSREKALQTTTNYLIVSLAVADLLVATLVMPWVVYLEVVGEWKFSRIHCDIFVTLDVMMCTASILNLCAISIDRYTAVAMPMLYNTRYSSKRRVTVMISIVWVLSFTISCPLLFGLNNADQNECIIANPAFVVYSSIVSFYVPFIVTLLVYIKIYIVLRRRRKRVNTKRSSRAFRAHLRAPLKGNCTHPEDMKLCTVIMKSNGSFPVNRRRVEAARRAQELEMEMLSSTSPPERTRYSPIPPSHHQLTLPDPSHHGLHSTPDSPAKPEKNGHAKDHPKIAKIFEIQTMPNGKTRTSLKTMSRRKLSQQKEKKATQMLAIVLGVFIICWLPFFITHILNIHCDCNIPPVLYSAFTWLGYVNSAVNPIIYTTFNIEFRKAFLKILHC

Row | Compound | inhibition
1 | CC(C)CCNC(=O)C1CCN(S(=O)(=O)c2cccc3nsnc23)CC1 | -5.34%
2 | N#Cc1cccc(NC(=O)COC(=O)CCc2ccc(S(=O)(=O)N3CCOCC3)cc2)c1 | active: 34.4%
3 | O=C(NCCCc1nc2ccccc2n1Cc1ccccc1)C1CCCCC1 | 8.59%
4 | Cc1ccccc1OCc1ccc(-c2nc(C#N)c(N3CCN(c4ccccc4)CC3)o2)o1 | -5.85%
5 | CN(C)c1cc2c(cc1NC(=O)c1ccc(F)cc1)n(C)c(=O)n2C | -7.3%
6 | COc1cccc(Cn2c(C)c(CNCc3ccccc3Cl)c(C(=O)O)c2C)c1 | 0.935%
7 | CCOc1ccc(CNC(=O)c2ccc(NC(=O)N3CCSc4ncccc43)cc2)cc1OC | 2.69%
8 | CC(=O)c1cccc(NC(=O)CN2C(=O)c3cccnc3Sc3ccccc32)c1 | 3.57%
9 | CCc1ccc(NC(=O)Cn2c(=O)n(-c3ccccc3)c(=O)c3ccc(C(=O)NCc4ccc5c(c4)OCO5)cc32)cc1 | -8.06%
10 | Cc1ccc(C)c(Cn2c(=O)n(Cc3ccco3)c(=O)c3oc4ccccc4c32)c1 | -3.81%
11 | CCc1ccccc1NC(=O)c1sc2nc3n(c(=O)c2c1C)CCC3 | 18.5%
12 | COc1cc(CN(C(=O)c2ccc(OC(C)C)cc2)C2CCS(=O)(=O)C2)cc(OC)c1OC (stereo unspecified) | -3.67%
13 | CCN1CCOC(=O)C1CC(=O)Nc1ccc(C(C)=O)cc1 (stereo unspecified) | 3.27%
14 | CCOC(=O)c1cnc2ccc(C(=O)OC)cc2c1Nc1ccc(N2CCOCC2)cc1 | 1.21%
15 | CCOc1ccc(CCNC(=O)c2ccc(CS(=O)(=O)c3ccccc3C)o2)cc1OCC | 20.5%
16 | COC(=O)c1ccc(Cn2c(SCC(=O)NCc3ccccc3)nc3ccccc32)cc1 | -11.6%
17 | CSCCC(NS(=O)(=O)c1cccs1)C(=O)Nc1ccc(C)c(Cl)c1 (stereo unspecified) | 1.16%
18 | CCc1ccccc1Nc1ncnc2c1cnn2-c1ccc(Cl)cc1 | 0.0401%
19 | CC(C)c1ccc(OCC(O)CN2CCN(c3ccccn3)CC2)cc1 (stereo unspecified) | active: 74.5%
20 | CC(=O)c1ccc(NC(=O)CSc2nnc(NC(=O)Nc3ccccc3)s2)cc1 | 13.9%
21 | COc1ccc(OC)c(NC(=O)Cc2c(C)n(C(=O)c3ccc(Cl)cc3)c3ccc(OC)cc23)c1 | 13.8%
22 | COc1ccc(Cl)cc1NC(=O)c1ncn(-c2ccccc2)n1 | -3.81%
23 | CC(C)C(=O)N1c2nc(C(C)C)nn2C2(CCCCC2)[C@@H]2CCCC[C@@H]21 | 15.5%
24 | Cc1cc(C)c2c(=O)cc(CSc3nnc(-c4ccccc4)n3C)[nH]c2c1 | -3.34%

Row | Compound | inhibition
25 | Cc1ccc(Nc2nc3ccccc3c3nnc(C)n23)cc1Cl | 3.39%
26 | COc1cc(-c2nnc(SCC(=O)Oc3ccccc3)o2)cc(OC)c1OC | 6.05%
27 | COc1ccc(OC)c(Nc2ncc3c(n2)CCN(Cc2cc(OC)c(OC)c(OC)c2)C3)c1 | 4.55%
28 | Cc1cnc(C(=O)Nc2ccccc2-c2nnn(CC(=O)NC3CCCC3)n2)cn1 | active: 30.4%
29 | COc1cc(OC)c(NC(=O)N2CCN3CCCCC3C2)cc1Cl (stereo unspecified) | 7.47%
30 | CC(C)(C)c1cc(C(C)(C)C)c2oc(=O)c(-c3nc4ccc(C(=O)O)cc4[nH]3)cc2c1 | 22.6%
31 | CC1CCN(Cc2c(O)ccc3c(=O)c(-c4ccc(Cl)cc4)c(C(F)(F)F)oc23)CC1 | -4.24%
32 | Cc1ccc(CN2CCN(C3CCN(C(=O)c4ccc(C)cc4)CC3)C(=O)C2=O)cc1 | 3.98%
33 | COc1ccc(Cl)cc1NC(=O)CCN1C(=O)c2ccccc2Sc2ncccc21 | -7.51%
34 | CCOC(=O)c1ccccc1NC(=O)CSc1cc(C)[nH]c(=O)n1 | -0.523%
35 | CC(Oc1ccc(Br)cc1)C(=O)NNC(=O)CCN1CCN(c2ccccc2)CC1 (stereo unspecified) | active: 61.5%
36 | CC(=O)N1CCc2cc(S(=O)(=O)NC(CC(C)C)C(=O)NCCc3ccccc3)ccc21 (stereo unspecified) | -8.9%
37 | Cc1ccc(-n2nc3c(N4CCC(C(=O)NCCc5ccccc5C)CC4)nnc(C)c3c2C)cc1 | -2.56%
38 | CCc1ccccc1NC(=O)N1CCC2(CC1)Oc1ccccc1C(=O)N2Cc1ccccc1F | 15.1%
39 | COC(=O)c1ccccc1NC(=O)Nc1cccs1 | active: 37.9%
40 | CCCC(CCC)C(=O)Nc1cccc(-c2nc3cccnc3s2)c1 | 12.8%
41 | CC(=O)Nc1ccc(NS(=O)(=O)c2ccc3[nH]c4c(c3c2)CCCCC4)cc1 | -1.2%
42 | CCOc1ccc(C(=O)NCC(c2ccc3c(c2)OCO3)N2CCN(c3ccc(F)cc3)CC2)cc1 (stereo unspecified) | 16.3%
43 | COc1ccc(CCN2C(=O)N(c3ccc(F)cc3)C(=O)C2CC(=O)Nc2ccc(OC)cc2)cc1 (stereo unspecified) | 13.4%
44 | Cc1ccc(Nc2ncnc3c2nc2n3CCCC2)c(Br)c1 | -11.7%
45 | COc1ccccc1CNC(=O)c1cnc2sc(N3CCOCC3)nn2c1=O | -0.723%
46 | COc1ccc(NC(=O)NCC2CCN(Cc3ccccc3F)CC2)c(OC)c1 | 14.1%
47 | COc1ccccc1CNC(=O)c1ccc2c(c1)CCN2S(=O)(=O)c1ccc(Cl)cc1 | 10%
48 | COC(=O)c1cc(S(=O)(=O)N2CCN(c3ccc(F)cc3)CC2)cn1C | 18%

Row | Compound | inhibition
49 | COc1ccc2nc(N(Cc3cccnc3)C(=O)COc3ccccc3)sc2c1 | -14.6%
50 | CCCCN1C(=O)C(O)(CC(=O)c2ccccc2OC)c2ccccc21 (stereo unspecified) | active: 33.1%
51 | COC(=O)c1ccc(Cn2nnc3c(=O)[nH]c(C4CCCN(S(=O)(=O)c5ccccc5)C4)nc32)cc1 (stereo unspecified) | -0.647%
52 | Cn1cc(C(=O)NCCc2ccc(Cl)cc2)c(=O)c2cc(S(=O)(=O)N3CCCCC3)ccc21 | -1.73%
53 | O=C(c1ccc2c(c1)N(Cc1ccccc1)C(=O)c1ccccc1S2=O)N1CCC(Cc2ccccc2)CC1 (stereo unspecified) | -0.306%
54 | CCc1cccc(C)c1NC(=O)C1=C(C)C(=O)OC12CCC(C)CC2 (stereo unspecified) | 14.8%
55 | CCCOc1ccc(C2=NC(c3ccc(F)cc3)=Nc3ccc(OC)cc3N2)cc1 | 5.36%
56 | O=S(=O)(c1ccc(SCCOc2cccc(Br)c2)nc1)N1CCCC1 | active: 42.3%
57 | COc1ccccc1Nc1ncc(C(=O)Nc2ccc(OC)c(OC)c2)c2ccccc12 | -9.82%
58 | Cc1ccc(C(=O)Nc2ccc(C(=O)OCc3cc(=O)n4c5c(sc4n3)CCCC5)cc2)cc1 | -9.82%
59 | Cc1c(-c2ccccc2)n(-c2ccccc2O)c2nc3c(c(=O)n(C)c(=O)n3C)n12 | 7.31%
60 | CCCCC(=O)NNC(=S)NC(=O)C(c1ccccc1)c1ccccc1 | active: 40.2%
61 | O=S(=O)(c1ccc(-c2cnc(C3CC3)o2)cc1)N1CCN(c2cccc(Cl)c2)CC1 | 13.6%
62 | CCOc1ccccc1C(=O)Nc1cc(-c2ccc(C)cc2)no1 | -2.48%
63 | Cc1cccc(S(=O)Cc2ccc(C(=O)NC3CCCCCC3)o2)c1 (stereo unspecified) | -1.62%
64 | CCCc1cc(C(=O)Nc2ccc(F)c(Cl)c2)no1 | active: 35.1%
65 | O=C(CSc1ncc2c(n1)-c1cc(Cl)ccc1N(Cc1ccccc1F)S2(=O)=O)Nc1cccc(C(F)(F)F)c1 | 1.05%
66 | CCCCCN1C(C(=O)c2ccccc2)=C(NC(C)=O)c2ccccc2S1(=O)=O | -15.4%
67 | COC(=O)c1cc(NC(=O)c2ccc3c(c2)N(Cc2cccc(Cl)c2)C(=O)c2ccccc2S3=O)cc(C(=O)OC)c1 (stereo unspecified) | -1.79%
68 | CC(=O)c1cccc(NC(=O)c2c(C)nn(-c3ccc(F)cc3)c2-n2cccc2)c1 | -0.521%
69 | Cc1cc(C)cc(C(=O)Nc2nnc3n2CCS3)c1 | -17.5%
70 | CCOC(=O)c1ccc(NC(=O)CSc2nccn2Cc2ccc(OC)cc2)cc1 | 1.76%
71 | Cc1cc2ccccc2n2c(SCC(=O)Nc3cccc(C(F)(F)F)c3)nnc12 | 3.49%
72 | CCCn1c2ccccc2c2cnn(CC(=O)Nc3ccc(C)cc3Br)c(=O)c21 | 0.901%

Row | Compound | inhibition
73 | CNc1oc(-c2ccc(COc3ccc(C)cc3)o2)nc1C#N | -6.86%
74 | COc1ccc(OCc2nc3c4c(-c5ccc(OC)cc5)c(-c5ccc(OC)cc5)oc4ncn3n2)cc1 | 28.2%
75 | CCOc1ccccc1NC(=O)c1cnc(N2CCOCC2)c2ccccc12 | -0.673%
76 | COc1ccc(C)cc1NC(=O)CCNS(=O)(=O)c1cccc2nonc12 | -0.186%
77 | CCc1ccc(NC(=O)c2sc3nc(C)c(Cl)c(C)c3c2NC(=O)c2ccccc2)cc1 | 0.401%
78 | Cc1nn(-c2ccccc2)c2nc(C3CC3)cc(C(=O)NCc3ccccc3Cl)c12 | -2.47%
79 | Cc1ccc(OCC(O)CN2CCN(c3ccccc3)CC2)cc1 (stereo unspecified) | active: 62.2%
80 | Cc1cccc(CNC(=O)c2sc3ncnc(N(C)C4CCCCC4)c3c2C)c1 | 17.2%
81 | CC(C)Nc1ccc(-c2nc(-c3ccccn3)no2)cc1[N+](=O)[O-] | 11%
82 | CCOc1ccccc1NC(=O)c1ccc2c(Cl)c3c(nc2c1)CCCC3 | 21.7%
83 | COc1ccc(CCNC(=O)COC(=O)C2CC2)cc1 | active: 31.3%
84 | COc1cccc(CNc2nc3c(-c4cccc(C)c4)nnn3c3ccccc23)c1 | -14%
85 | CCOc1ccc(-c2nnc(SCC(=O)NCCc3ccccc3)nc2-c2ccc(OCC)cc2)cc1 | 7.74%
86 | O=C(OCc1cc(=O)n2nc(-c3cccs3)sc2n1)c1ccccc1Br | -4.86%
87 | CC(=O)Nc1ccc(NC(=O)CCC(=O)c2ccc(C)cc2)cc1 | 0.136%
88 | Cc1cc(NC(=O)C(C)(C)Oc2ccc(Cl)cc2)cc(-c2nc3ncccc3o2)c1O | 7.8%
89 | CCN(C(=O)c1cnc(N2CCOCC2)c2ccccc12)c1cc(C)ccc1C | -6.25%
90 | CC(C)N(Cc1ccccc1)C(=O)CN1C(=O)COc2ccc(S(=O)(=O)N3CCCCCC3)cc21 | 12.5%
91 | CC12CCC(=O)N1C(C(=O)N1CCN(c3cccc(Cl)c3)CC1)CS2 (stereo unspecified) | active: 70.7%
92 | COc1ccc(CCNC(=O)c2cc(S(=O)(=O)N3CCCC(C)C3)cn2C)cc1OC (stereo unspecified) | 9.18%
93 | O=C(O)c1ccc2c(c1)N(Cc1ccc(F)cc1Cl)C(=O)c1ccccc1S2 | 9.28%
94 | Cc1ccc(S(=O)(=O)NNC(=O)CCC(=O)Nc2ccc(C)c(C)c2)cc1 | active: 31.5%
95 | Cc1ccc(C(=O)CN(C(=O)c2ccc(Cl)cc2)N2C(=O)CCC2=O)cc1 | active: 30.5%
96 | COc1ccc(NC(=O)CCS(=O)(=O)c2nc(-c3ccc4c(c3)OCO4)cc(C(F)(F)F)n2)c(OC)c1 | 4.4%
